Molecular target: HIV-1 HXB2 gp41 (from the HXB2 gp160 gene), on single-round luciferase virus (HIV-1 (HXB2))
Assay: cell-based or functional assay

RMKQIEDKIEEIESKQKKIENEIARIKKLIGERY (N-terminal acetyl, C-terminal amide) [GCN4-pIQI′]
IC50 (nm), viral infectivity (HIV luciferase assay): > 10 µM

Reference: patent US7811578B2, “Soluble chimeric peptide inhibitors of HIV entry comprising an IZ trimeric coiled-coil peptide and HIV gp41 N-helix coiled-coil peptide” (Whitehead Institute for Biomedical Research, dated 2010)
